# Experimental data from PubChem BioAssay AID2147 (National Center for Advancing Translational Sciences (NCATS), 2009).
# About 3,600 (1.6%) of roughly 230,000 compounds were called active. The shares of active, inactive and inconclusive entries below differ from those in the screen. Calls follow the shape of the dose curve; as a rule, active = well fitted inhibition curve with a large enough effect (not every such curve was filed as active); inconclusive = small, poorly fitted or top-dose-only effect, or another doubt; inactive = no such curve, though single readings can be large or run the other way. Where the call is inconclusive, the potency comes from a doubtful curve fit.
# Molecular target: Lysine-specific demethylase 4E (Homo sapiens) (UniProt B2RXH2)
# UniProt B2RXH2, sequence (B2RXH2 whole entry, looked up, the tested form may be a part): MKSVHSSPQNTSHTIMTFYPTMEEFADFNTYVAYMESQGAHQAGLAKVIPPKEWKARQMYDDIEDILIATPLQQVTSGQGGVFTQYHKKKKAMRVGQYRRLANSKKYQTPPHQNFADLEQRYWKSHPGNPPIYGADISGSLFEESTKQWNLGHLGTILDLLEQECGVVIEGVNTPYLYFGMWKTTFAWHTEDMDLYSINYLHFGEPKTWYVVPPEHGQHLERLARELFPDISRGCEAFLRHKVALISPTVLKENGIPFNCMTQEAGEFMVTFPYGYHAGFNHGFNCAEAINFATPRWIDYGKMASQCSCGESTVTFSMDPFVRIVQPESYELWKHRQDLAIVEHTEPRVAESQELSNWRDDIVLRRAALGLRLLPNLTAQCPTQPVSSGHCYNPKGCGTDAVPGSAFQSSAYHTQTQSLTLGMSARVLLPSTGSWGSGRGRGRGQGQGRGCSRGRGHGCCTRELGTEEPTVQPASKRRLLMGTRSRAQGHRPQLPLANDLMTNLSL
# Assay: qHTS Assay for Inhibitors of Human Jumonji Domain Containing 2E (JMJD2E)
# Settings: JMJD2E catalytic domain, FDH-coupled NADH fluorescence (FDH is formaldehyde dehydrogenase); series mostly up to 57.1 µM
# Also: nearly all actives have a fitted effect of over 50% in size.
# Potency is read from the fitted curve at half-maximal effect; tags tell the direction and shape of the fitted curve.
row,Compound,Potency
1,COc1ccc(C(=O)NNC(=O)CCn2nnc(-c3ccc(C)cc3)n2)cc1OC,inactive
2,COc1ccc(N2CCN(C(=O)CCc3ccc(S(=O)(=O)NC(C)(C)C)cc3)CC2)cc1,inactive
3,CCC(=O)OCCNc1nc(-c2ccccc2)nc2ccccc12,"inconclusive: 11.2 µM [inhibitor, partial curve]"
4,COc1ccc(C(C)=O)cc1COC(=O)CNC(=O)c1ccccc1F,inactive
5,COc1ccc2nc(N3CCCCC3)c(C#N)cc2c1,"inconclusive: 39.8 µM [inhibitor, single point]"
6,Cc1ccc(C)c(NC(=O)Cn2c(=O)n(-c3ccc(CC(=O)NCC4CCCO4)cc3)c(=O)c3ccccc32)c1 (stereo not drawn),"inconclusive: 35.5 µM [inhibitor, single point]"
7,O=C(NCCO)c1c(O)c2cccc3c2n(c1=O)CC3,"inconclusive: 31.6 µM [inhibitor, partial curve]"
8,COCCNC(=S)N/N=C(\C)c1ccc2cc(OC)ccc2c1,inactive
9,CCCCCCNc1cc2n(c(=O)n1)CCc1cc(OC)c(OC)cc1-2,"inconclusive: 25.1 µM [inhibitor, partial curve]"
10,CC(=O)Nc1ccc(O)c(-c2nc3ccccc3s2)c1,"inconclusive: 7.08 µM [inhibitor, full curve]"
11,CC1CCC(C(C)C)C(OC(=O)C2=C3c4ccccc4S(=O)(=O)N3CC2)C1 (stereo not drawn),"inconclusive: 3.16 µM [inhibitor, full curve]"
12,CCOC(=O)c1cc(-c2cccs2)nc2c1c(C)nn2-c1ccccn1,"inconclusive: 31.6 µM [inhibitor, partial curve]"
13,Cc1ccc2nc(/C(C#N)=C\c3cc(C)n(-c4cccc([N+](=O)[O-])c4)c3C)[nH]c2c1,inactive
14,CN1CCCN(C(=O)c2cc(-c3cccc4ccccc34)nc3ccccc23)CC1,"inconclusive: 28.2 µM [inhibitor, partial curve]"
15,O=C1C2C(c3ccccc3)=NN(c3ccccc3)C2C(=O)N1c1ccccc1 (stereo not drawn),"inconclusive: 31.6 µM [inhibitor, partial curve]"
16,CCOC(=O)c1cc2c(ccn2-c2ccc(F)cc2)n1CC(=O)N(CC)CC,"inconclusive: 6.31 µM [inhibitor, single point]"
17,CCOC(=O)c1ccc(NC(=O)c2nc[nH]c2C(=O)NCC(=O)OC(C)(C)C)cc1,"inconclusive: 39.8 µM [inhibitor, single point]"
18,CC(=O)N1CCCc2cc(S(=O)(=O)NC(C(=O)NC3CCCCC3)C(C)C)ccc21 (stereo not drawn),inactive
19,CC(C)(C)OC(=O)NCCC(=O)N/N=C/c1ccc2nccnc2c1,"inconclusive: 39.8 µM [inhibitor, single point]"
20,CSCCC(=O)Nc1cc(S(=O)(=O)N2CCOCC2)ccc1N1CCN(C)CC1,inactive
21,NC(=O)NN=C1C2CCCC1C(c1ccccc1)NC2c1ccccc1 (stereo not drawn),inactive
22,CC(O)CNCCOc1ccccc1OCc1ccccc1 (stereo not drawn),"inconclusive: 22.4 µM [inhibitor, single point]"
23,Nc1ccccc1-c1nnc(-c2ccc(-c3ccccc3)cc2)o1,"inconclusive: 31.6 µM [inhibitor, partial curve]"
24,Cc1ccc(S(=O)(=O)Nc2cccc(N(C)S(C)(=O)=O)c2)cc1[N+](=O)[O-],inactive

row,Compound,Potency
1,COc1ccccc1-c1cnnc(N/N=C/c2ccc(-c3cccc(Br)c3)o2)n1,inactive
2,CCOC(=O)c1ccc(NC(=O)Cn2nnc(-c3ccccc3F)n2)cc1,inactive
3,CSc1ccc(/C=N/NC(=O)c2ccccc2Cl)cc1,"inconclusive: 25.1 µM [inhibitor, single point]"
4,CCCC(=O)NCCCc1nc2ccccc2[nH]1,inactive
5,Cc1nc2nc(-c3ccco3)[nH]n2c(=O)c1Cc1ccccc1,"inconclusive: 35.5 µM [inhibitor, partial curve]"
6,CCOC(=O)C(=CNc1cc(OC)ccc1-n1cccc1)C(=O)OCC,"inconclusive: 39.8 µM [inhibitor, single point]"
7,COc1cc(Cl)cc(C2NC(=O)NC(C)=C2C(C)=O)c1OCC(=O)O (stereo not drawn),inactive
8,CCCCCCCc1c(O)nc(SCCN(C)C)[nH]c1=O,"inconclusive: 31.6 µM [inhibitor, single point]"
9,O=C(c1ccccc1)N1CCN(C2CCCCC2)CC1,"inconclusive: 39.8 µM [inhibitor, single point]"
10,CCn1c2ccccc2c2cc(NC(=O)COC(=O)c3cc(OC)c(OC)cc3OC)ccc21,"inconclusive: 39.8 µM [inhibitor, single point]"
11,COc1cc(OC)c(-c2nn3c(-c4ccco4)nnc3s2)cc1OC,"inconclusive: 31.6 µM [inhibitor, partial curve]"
12,COc1ccc(Nc2nc(-c3cccs3)nc3ccccc23)c(OC)c1,"inconclusive: 28.2 µM [inhibitor, partial curve]"
13,COc1cc(O)oc1C=Nc1ccc(Cl)cc1,inactive
14,O=C(COC(=O)CCSc1ccccc1)Nc1cc(F)ccc1F,inactive
15,CCCCc1ccc(NC(=O)CC(C)(C)C)cc1,inactive
16,C=CCNC(=O)c1oc2ccc(S(=O)(=O)N(CC)CC)cc2c1C,inactive
17,Cc1cc(=O)n(CCO)c(O)c1C#N,"inconclusive: 20 µM [inhibitor, partial curve]"
18,CCOC(=O)COc1ccc(C2NC(C(=O)O)CS2)cc1 (stereo not drawn),"inconclusive: 28.2 µM [inhibitor, single point]"
19,COc1ccc(CN2C(=O)c3ccccc3C2C(=O)NC2CCCC2)c(OC)c1 (stereo not drawn),inactive
20,Cc1cc(NC(=O)Nc2cccc(Cl)c2)n(-c2ccccc2)n1,inactive
21,COc1ccc(-c2noc(CCC(=O)N3CCC(C)CC3)n2)cc1,inactive
22,NC(=O)c1ccc(Oc2cccc3cccnc23)c([N+](=O)[O-])c1,"inconclusive: 20 µM [inhibitor, single point]"
23,CN1CCN(c2ccc(Cl)cc2NC(=O)c2ccc(S(=O)(=O)N(C)C)cc2)CC1,inactive
24,CCCN(CCC)CCCNC(=O)c1cc2cc3ccc(OC)cc3nc2o1,"inconclusive: 28.2 µM [inhibitor, partial curve]"
